The list shows a part of the results.
Key:
HSkMC = human skeletal muscle cells; test: cytotoxicity call (relative viability < 0.9); details: 10 µM
HepG2 = test: cytotoxicity call (relative viability < 0.9); details: 10 µM
S. aureus RN4220 = test: growth inhibition call (relative growth <= 0.2); details: 50 µM

Row | Structure (SMILES) | cytotoxicity call (HSkMC) | cytotoxicity call (HepG2) | growth inhibition call (S. aureus RN4220)
1 | COc1ccccc1CNC(=O)C[C@@H]1C[C@@H]2c3cc(NC(=O)NC4CCCC4)ccc3O[C@@H]2[C@H](CO)O1 | inactive | inactive | inactive
2 | CO[C@@H]1CN(C)C(=O)c2ccc(NC(=O)C3CC3)cc2OC[C@@H](C)N(C(=O)Cc2ccccn2)C[C@@H]1C | inactive | inactive | inactive
3 | C[C@H](CO)N1C[C@H](C)[C@@H](CN(C)S(=O)(=O)c2ccccc2F)Oc2ncc(Br)cc2C1=O | inactive | inactive | inactive
4 | Cc1ccc(S(=O)(=O)Nc2ccc3c(c2)C(=O)N([C@@H](C)CO)C[C@@H](C)[C@@H](CN(C)S(=O)(=O)c2ccc(C)cc2)OCCCC[C@@H](C)O3)cc1 | inactive | inactive | inactive
5 | C[C@H](CO)N1C[C@H](C)[C@H](CN(C)S(=O)(=O)c2cn(C)cn2)Oc2ccc(N(C)C)cc2CC1=O | inactive | inactive | inactive
6 | COc1ccc(NC(=O)Nc2ccc3c(c2)C(=O)N([C@H](C)CO)C[C@@H](C)[C@@H](CN(C)C(=O)Nc2ccc4c(c2)OCO4)OCCCC[C@@H](C)O3)cc1 | inactive | inactive | inactive
7 | C[C@H](CO)N1C[C@H](C)[C@H](CN(C)Cc2ccc(Cl)c(Cl)c2)Oc2c(NC(=O)Nc3ccc(F)cc3)cccc2C1=O | inactive | inactive | inactive
8 | C[C@H]1CN([C@@H](C)CO)C(=O)c2cc(C#CCN(C)C)cnc2O[C@H]1CN(C)C(=O)Nc1ccccc1F | inactive | inactive | inactive
9 | CC(C)NC(=O)Nc1ccc2c(c1)C(=O)N([C@@H](C)CO)C[C@@H](C)[C@H](CN(C)Cc1ccccc1)OCCCC[C@@H](C)O2 | inactive | inactive | inactive
10 | N=C(N)NC(=O)c1cnccn1 | inactive | inactive | inactive
11 | C[C@@H]1CN([C@@H](C)CO)C(=O)Cc2cc(NC(=O)Cn3cnnn3)ccc2O[C@H]1CN(C)C(=O)Nc1cccc2ccccc12 | inactive | inactive | inactive
12 | CO[C@H]1CN(C)C(=O)c2ccc(NS(=O)(=O)c3cn(C)cn3)cc2OC[C@H](C)N(CC2CC2)C[C@H]1C | inactive | inactive | inactive
13 | C[C@@H]1CN([C@H](C)CO)C(=O)c2cc(NC(=O)Nc3cccc4ccccc34)ccc2O[C@@H]1CN(C)Cc1ccc(C(=O)O)cc1 | inactive | inactive | inactive
14 | C[C@@H]1CN([C@@H](C)CO)C(=O)c2cc(NS(=O)(=O)c3ccccc3)ccc2O[C@H]1CN(C)Cc1ccc(-c2ccccc2)cc1 | inactive | active | inactive
15 | CCS(=O)(=O)CCn1c([N+](=O)[O-])cnc1C | inactive | active | inactive
16 | C[C@H]1CN([C@@H](C)CO)S(=O)(=O)c2ccc(C#CC(C)(C)O)cc2O[C@H]1CN(C)Cc1ccc(F)cc1 | inactive | inactive | inactive
17 | C[C@@H]1O[C@@H](O[C@@H]2[C@@H](O)[C@H](O)[C@@H](CO)O[C@H]2c2c(O)cc(O)c3c(=O)cc(-c4ccc(O)cc4)oc23)[C@H](O)[C@H](O)[C@H]1O | inactive | inactive | inactive
18 | COc1ccc2c3c(n(c2c1)C)[C@H](CO)N(C[C@]13CCN(CC1)C(=O)Nc1c(noc1C)C)C(=O)Nc1ccc(cc1)F | inactive | inactive | inactive
19 | Cn1ccnc1CO | inactive | inactive | inactive
20 | C[C@@H]1CN([C@@H](C)CO)C(=O)c2cc(/C=C/c3ccccc3)cnc2O[C@H]1CN(C)C(=O)c1cnccn1 | inactive | inactive | inactive
21 | COc1ccc(NC(=O)Nc2ccc3c(c2)C(=O)N([C@H](C)CO)C[C@H](C)[C@@H](CN(C)C(=O)Cc2ccccc2)OCCCC[C@H](C)O3)cc1 | inactive | inactive | inactive
22 | Cc1ncc([N+](=O)[O-])n1CC(O)CCl (configuration not stated) | inactive | inactive | inactive
23 | COc1ccc(S(=O)(=O)Nc2ccc3c(c2)C(=O)N([C@@H](C)CO)C[C@@H](C)[C@H](CN(C)C(=O)Nc2c(C)noc2C)OCCCC[C@@H](C)O3)cc1 | inactive | inactive | inactive
24 | C[C@H]1CN([C@@H](C)CO)C(=O)c2cc(NC(=O)Nc3cccc4ccccc34)ccc2O[C@H]1CN(C)Cc1ccncc1 | inactive | inactive | inactive
25 | COc1ccccc1S(=O)(=O)N1C[C@H](O)COC[C@@H]2O[C@H](CC(=O)O)CC[C@H]21 | inactive | inactive | inactive
26 | Nc1ccc(C(=O)O)cc1 | inactive | inactive | inactive
27 | C[C@H]1CN([C@@H](C)CO)C(=O)Cc2cc(NC(=O)Nc3ccc4c(c3)OCO4)ccc2O[C@@H]1CN(C)Cc1ccc(-c2ccccc2)cc1 | inactive | active | inactive

Row | Structure (SMILES) | cytotoxicity call (HSkMC) | cytotoxicity call (HepG2) | growth inhibition call (S. aureus RN4220)
28 | CC(C)NC(=O)N(C)C[C@@H]1OCCCC[C@H](C)Oc2ccc(NC(=O)C3CCCCC3)cc2C(=O)N([C@H](C)CO)C[C@@H]1C | inactive | inactive | inactive
29 | C[C@@H]1CN([C@H](C)CO)C(=O)CCCn2nncc2CO[C@H]1CN(C)C(=O)Nc1ccc2c(c1)OCO2 | inactive | inactive | inactive
30 | C[C@@H]1CN([C@H](C)CO)C(=O)c2cccc(NS(=O)(=O)c3cn(C)cn3)c2O[C@H]1CN(C)S(=O)(=O)c1cccs1 | inactive | inactive | inactive
31 | C[C@@H]1CN([C@H](C)CO)C(=O)c2cccc(NC(=O)Nc3ccc(C(F)(F)F)cc3)c2O[C@@H]1CN(C)Cc1ccc(Cl)c(Cl)c1 | active | active | inactive
32 | COc1ccc(NC(=O)Nc2ccc3c(c2)C(=O)N([C@@H](C)CO)C[C@H](C)[C@@H](CN(C)S(=O)(=O)c2ccccc2)OCCCC[C@H](C)O3)cc1 | inactive | inactive | inactive
33 | C[C@@H]1CN([C@H](C)CO)C(=O)c2cc(C#CC3(O)CCCC3)cnc2O[C@@H]1CN(C)S(=O)(=O)c1cccc(F)c1 | inactive | inactive | inactive
34 | C[C@@H]1CN([C@H](C)CO)C(=O)c2cc(NC(=O)Nc3ccc(C(F)(F)F)cc3)ccc2O[C@@H](C)CCCCO[C@@H]1CN(C)Cc1ccc(C(=O)O)cc1 | inactive | inactive | inactive
35 | COc1ccc(NC(=O)Nc2cccc3c2O[C@@H](CN(C)Cc2ccc(Cl)c(Cl)c2)[C@@H](C)CN([C@H](C)CO)C3=O)cc1 | inactive | active | inactive
36 | C[C@@H]1CN([C@@H](C)CO)C(=O)c2cccc(NC(=O)NC3CCCCC3)c2O[C@H]1CN(C)S(C)(=O)=O | inactive | inactive | inactive
37 | COc1ccc(NC(=O)Nc2ccc3c(c2)C(=O)N([C@@H](C)CO)C[C@@H](C)[C@@H](CN(C)CC2CC2)OCCCC[C@@H](C)O3)cc1 | inactive | inactive | inactive
38 | O=C1CO[C@@H](c2ccccc2)CN1 | inactive | inactive | inactive
39 | CC(C)NC(=O)Nc1ccc2c(c1)C(=O)N([C@@H](C)CO)C[C@H](C)[C@H](CN(C)CC1CCCCC1)OCCCC[C@H](C)O2 | inactive | inactive | inactive
40 | COc1ccc(NC(=O)Nc2ccc3c(c2)C(=O)N([C@H](C)CO)C[C@@H](C)[C@H](CN(C)C(=O)C2CCCCC2)OCCCC[C@@H](C)O3)cc1 | inactive | active | inactive
41 | C[C@@H]1CCCCO[C@H](CN(C)C(=O)c2ccncc2)[C@H](C)CN([C@H](C)CO)C(=O)c2cc(NS(C)(=O)=O)ccc2O1 | inactive | inactive | inactive
42 | O=C(C[C@@H]1CC=CC[C@H](NC(=O)OCC2c3ccccc3-c3ccccc32)C(=O)OC[C@H](Cc2ccccc2)NC1=O)N[C@@H](CO)Cc1ccccc1 | inactive | inactive | inactive
43 | C[C@@H]1CN([C@@H](C)CO)C(=O)c2cc(NC(=O)Nc3cccc4ccccc34)ccc2O[C@@H](C)CCCCO[C@H]1CN(C)C(=O)Nc1ccc2c(c1)OCO2 | inactive | inactive | inactive
44 | C[C@@H]1CN([C@H](C)CO)C(=O)CCCn2nncc2CO[C@H]1CN(C)C(=O)CCCN(C)C | inactive | inactive | inactive
45 | Cc1noc(C)c1NC(=O)Nc1ccc2c(c1)C(=O)N([C@@H](C)CO)C[C@@H](C)[C@@H](CN(C)C(=O)NC1CCCCC1)OCCCC[C@H](C)O2 | inactive | inactive | inactive
46 | Cc1noc(C)c1NC(=O)N(C)C[C@@H]1OCCCC[C@H](C)Oc2ccc(NC(=O)Nc3ccc4c(c3)OCO4)cc2C(=O)N([C@H](C)CO)C[C@@H]1C | inactive | inactive | inactive
47 | C[C@@H]1CCCCO[C@@H](CN(C)Cc2ccc3c(c2)OCO3)[C@H](C)CN([C@H](C)CO)C(=O)c2cc(NC(=O)c3ccccc3)ccc2O1 | inactive | inactive | inactive
48 | CCC(Cc1c(I)cc(I)c(N)c1I)C(=O)O (configuration not stated) | inactive | inactive | inactive
49 | C[C@@H]1CN([C@H](C)CO)C(=O)c2cc(NC(=O)CCCN(C)C)ccc2O[C@@H](C)CCCCO[C@@H]1CN(C)S(C)(=O)=O | inactive | inactive | inactive
50 | CC(=O)N[C@@H](C(=O)O)C(C)(C)S[NH2+][O-] | inactive | inactive | inactive
51 | Cc1noc(C)c1NC(=O)N(C)C[C@@H]1Oc2ncc(C#CCC(C)C)cc2C(=O)N([C@@H](C)CO)C[C@H]1C | inactive | inactive | inactive
52 | C[C@@H]1CN([C@H](C)CO)C(=O)Cc2cc(NC(=O)Nc3ccc(F)cc3)ccc2O[C@@H]1CN(C)Cc1ccc(-c2ccccc2)cc1 | inactive | inactive | inactive
53 | COc1ccc(NC(=O)Nc2ccc3c(c2)C(=O)N([C@H](C)CO)C[C@H](C)[C@@H](CN(C)CC2CC2)OCCCC[C@@H](C)O3)cc1 | inactive | inactive | inactive
54 | C[C@@H]1CN([C@@H](C)CO)C(=O)Cc2cc(NC(=O)Cn3cnnn3)ccc2O[C@H]1CN(C)Cc1ccc(-c2ccccc2)cc1 | inactive | inactive | inactive

— the antibiotic and cytotoxicity screens of Wong et al. (2023)
